Among the data in paper PMC6451091 are binding signal values, retold here.

The list shows a part of the results. Measured with an extract: partners may take part in the binding.

The test system of the assay is PU.1 (endogenous, THP-1 nuclear extract) + IRF8 (endogenous, THP-1 nuclear extract). Briefly: nuclear extract protein-binding microarray (nextPBM). The note with it: 20 mM HEPES pH 7.9, 100 mM NaCl, 1 mM DTT, 0.2 mg/mL BSA, 0.02% Triton X-100, 2% milk, 0.4 mg/mL salmon testes DNA; 1 h; temperature not stated; high values mean tight binding; double strand, one strand shown; sequences stand for … in GCCTAGCAC…GTGCTAGGTCTTGATTCGCTTGACGCTGCTG
Take TCCTCAGTCTGGCTGAGTGA: the binding signal turned out to be 0.0452 z-score.
Next, TTATGAAGGTTAGGGAGAAG: -0.301 z-score; ACTGTAGCCCAAGAGTATCT: 0.474 z-score; CATCCCTCTTAGGGGTCCAG: 1.01 z-score.
Consider GAGGATTGGTTAATAAAGAT, for which the binding signal was -0.0703 z-score.
For the sequence CTGTGTTTTGAAATCATATT, the binding signal is -0.0514 z-score.
Next, CATAACATAAAATTTACCAT: 0.707 z-score.
